Experimental data taken from PubChem BioAssay AID652104 (National Center for Advancing Translational Sciences (NCATS), 2013).
The campaign covered roughly 410,000 compounds. About 7,200 (1.8%) were called active. Inconclusive results, whose numbers are uncertain, are shown with a selection of clear calls. The call rests on the fitted dose curve; in most records, active means well fitted activation curve with a large enough effect; inconclusive means small, poorly fitted or top-dose-only effect, or another doubt; inactive means no such curve, though single readings can be large or run the other way. Potencies of inconclusive entries are doubtful fits and often do not repeat.

Experiment: qHTS of TDP-43 Inhibitors; further: nearly all actives have a fitted effect of over 50% in size; on growth rescue (activation): % of control where 0% means no effect
Settings: TDP-43 expressing yeast growth rescue, BacTiter-Glo, 24 h; growth rescue (activation): at 46.1 µM (top of the series) unless noted
Method in brief: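 Galactose-induced TDP-43 yeast, OD600=0.02, compound pinned; 24 hr, 30 deg C; BacTiter-Glo luminescence for growth. Inhibitors of TDP-43 toxicity read as activators.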
Potency means the concentration at half of the fitted maximal effect; tags describe the fitted curve by direction and shape.

Potency, active:
CCOc1cc(C2NN=C(c3ccccc3)S2)ccc1OCc1ccc(F)cc1 (centres undefined) 14.1 µM, CCCCCCN1C[C@H](n2cc(COC(=O)c3ccccc3)nn2)[C@@H](O)C[C@@H]1c1ccc(C)cc1 35.5 µM, Cc1ccc2c(Cl)cc(Cl)c(OCC(=O)O)c2n1 14.1 µM, Cc1cc(NC(=O)c2cccnc2)ccc1Br 11.2 µM, COc1cccc(/C=C/c2nc(C#N)c(N3CCCCC3)o2)c1 15.8 µM, Cc1ccc(SCc2ccc(C(=O)Nc3nccs3)o2)cc1 12.6 µM, COc1ccc2oc(C)c(C(=O)c3ccc([N+](=O)[O-])cc3)c2c1 22.4 µM

Potency, inconclusive:
CCOC(=O)C1=CNS(=O)(=O)NC1c1ccc2ccccc2c1 (centres undefined) 6.31 µM [activator, single point], CCCN(CCC)C(=O)C1CCCN(c2ncnc3c2nc2n3CCCCC2)C1 (centres undefined) 12.6 µM [activator, partial curve], CC(=O)Nc1c(C)nn(-c2ccccc2)c1N1CCC(C(=O)Nc2cccc(C(F)(F)F)c2)CC1 2.51 µM [activator, full curve], Cc1c2c(nc3ccccc13)CC(C)(C)CC2=O 15.8 µM [activator, partial curve], C=CCN1C(=O)C2(OCCCO2)c2cc(CCCC)ccc21 10 µM [activator, partial curve], NC(=O)c1ccc(Oc2ccc3c(c2)CCC3)c([N+](=O)[O-])c1 12.6 µM [activator, partial curve], CC(C)N(C(C)C)S(=O)(=O)c1ccc(N2CCc3ccccc3C2)nc1 25.1 µM [activator, single point], COc1ccc(CN2CSC(=S)N(Cc3ccccc3)C2)cc1 22.4 µM [activator, single point], O=c1cc(CN2CCCCCCC2)c2c(ccc3ccccc32)o1 0.562 µM [activator, full curve, poor fit], O=C(CSC1=NCCS1)Nc1nc2c(s1)CCCC2 17.8 µM [activator, single point], COc1ccccc1N1CCN(C(=O)/C=C/c2ccc(C)cc2)CC1 35.5 µM [activator, single point], Cc1c(C(=O)N2CCN(c3ccccc3)CC2)oc2c(Cl)cccc12 14.1 µM [activator, single point], C[N+]1(C)CCCC(OC(=O)C(O)(c2ccccc2)c2ccccc2)C1 (centres undefined) 0.316 µM [activator, full curve, poor fit], CCc1cccc(NS(=O)(=O)c2cc(-c3cnc(C)o3)ccc2OC)c1 7.08 µM [activator, partial curve], COc1cccc(Cn2c(NCc3ccco3)nc3c2c(=O)n(C)c(=O)n3C)c1 11.2 µM [activator, partial curve], CCOC(=O)c1c(NC(=O)CSc2nnc(-c3ccccc3C)n2C)sc(C(C)=O)c1C 11.2 µM [activator, partial curve], O=C(Cc1ccccc1)N1CCN=C1SCc1ccc([N+](=O)[O-])cc1 35.5 µM [activator, partial curve], CN(Cc1ccccc1)S(=O)(=O)c1ccccc1Br 11.2 µM [activator, partial curve], CCCCC1CCC(CCCC(C)CCC(=O)O)CC1 (centres undefined) 12.6 µM [activator, partial curve], CCc1cc2ccccc2nc1SCC(=O)N1CCN(C(=O)c2ccco2)CC1 22.4 µM [activator, single point], Cc1cc(Nc2ccccc2)nc2cc(O)ccc12 3.55 µM [activator, partial curve], C=CCSc1nc(N(CC)CC)c2sccc2n1 11.2 µM [activator, partial curve], COc1ccc(C(=O)Nn2c(C)nc3ccccc3c2=O)cc1Br 12.6 µM [activator, partial curve], N#Cc1cccc(C(=O)C(=O)N2CCN(C(=O)OCc3ccccc3)CC2)c1 11.2 µM [activator, partial curve], COc1ccc(NC(=O)[C@@H]2CC=C[C@@H]3CCN(Cc4ccc(Cl)c(Cl)c4)C(=O)[C@@H]32)cc1 11.2 µM [activator, partial curve], Clc1ccc(-c2csc(-c3cccnc3)n2)s1 35.5 µM [activator, single point], CCOc1ccc(C2CC(c3cccc(C)c3)n3ncnc3N2)cc1 (centres undefined) 11.2 µM [activator, partial curve], Cc1ccc2c(c1C)OC(=O)CC2c1ccccc1 (centres undefined) 15.8 µM [activator, single point], CC1CCN(C(=O)CN2CCSc3ccccc32)CC1 7.08 µM [activator, full curve], CSc1nccc(Nc2ccccc2)c1C#N 35.5 µM [activator, single point], COc1ccc(-c2cc3nc(-c4ccccc4)cc(N4CCC5(CC4)OCCO5)n3n2)cc1 20 µM [activator, single point], c1ccc(Cn2cc(CN3CCCCO3)c(-c3ccc4c(c3)OCO4)n2)cc1 8.91 µM [activator, partial curve], Cc1ccc(Nc2nc(Cl)nc(NC(C)(C)C)n2)cc1 22.4 µM [activator, single point], COc1ccc(N2CCN(C(=O)Oc3ccc([N+](=O)[O-])cc3)CC2)cc1 6.31 µM [activator, full curve], O=[N+]([O-])c1ccc(-c2nc(NCC3CCCO3)c3ccccc3n2)cc1 (centres undefined) 31.6 µM [activator, single point], CC(=O)Oc1c(Cl)cc(Cl)cc1/C=C/c1ccc2ccccc2n1 11.2 µM [activator, partial curve], COc1ccccc1N1CCN(C(=O)c2ccc(COc3cccc4c3OC(C)(C)C4)cc2)CC1 35.5 µM [activator, partial curve], O=C(Cc1cccs1)Nc1nc2ccccc2s1 12.6 µM [activator, single point], CSc1ccc(CCNC(=O)CCc2c(C)nc3c(-c4ccccc4)c(C)nn3c2C)cc1 6.31 µM [activator, partial curve], OCCN(CCO)c1cc2c3ccccc3ccc2c2ccccc12 3.98 µM [activator, single point], c1ccc2scnc2c1 35.5 µM [activator, partial curve], COC(=O)c1sccc1NC(=S)NCc1ccc(Cl)cc1 3.16 µM [activator, partial curve, poor fit]

Potency, inactive:
O=C(C1CCCN(S(=O)(=O)c2cccc3nonc23)C1)N1CCN(c2cccc(Cl)c2)CC1 (centres undefined)

Growth rescue (activation), inconclusive:
Cc1ccc(CNC(=O)CN(c2ccc(C(C)C)cc2)S(=O)(=O)c2c(C)n[nH]c2C)cc1 30.3% [activator], COc1ccc(C2=CC3=C(Br)C(=O)C(C)(O)C(=O)C3=CO2)cc1 (centres undefined) -91.1% [activator], COc1cccc(CN(C)C(=O)c2ccc(OCC(=O)Nc3cccc(C(F)(F)F)c3)c(OC)c2)c1 45.9% [activator]

Growth rescue (activation), inactive:
COC(=O)c1ccc(COC(=O)CNC(=O)c2ccc(C)s2)cc1 4.07%, Cc1ccccc1CNC(=O)c1ccc(CN2CC(=O)N3CCCCC3C2=O)cc1 (centres undefined) -20%, C=CCC[C@H](Cc1ccc(F)cc1)C(=O)OC[C@@H](Cc1c[nH]c2ccccc12)NC(=O)[C@@H](CC=C)CC(=O)N[C@@H](CO)Cc1ccccc1 -2.96%, O=C(CCCN1CCC(O)(c2ccc(Br)cc2)CC1)c1ccc(F)cc1 -6.88%, CCOC(=O)Cn1c(=O)n(CC2CCCO2)c2nc(-c3c(F)cccc3Cl)nc(C(N)=O)c21 (centres undefined) 29.7%, CCOC(=O)C1=CCN(S(=O)(=O)c2ccc(C)cc2)C1c1cccc(C)c1 (centres undefined) 0%, Cc1cccc(NC(=O)Cn2cc(S(=O)(=O)Cc3ccccc3Cl)c3ccccc32)c1 14.7%, COc1ccc(N2CC(c3nc(-c4cc(OC)c(OC)c(OC)c4)no3)CC2=O)cc1Cl (centres undefined) 6.53%, CCOc1ccc(C(=O)Nc2nnc(S(=O)(=O)N(CC)c3ccccc3C)s2)cc1 15.5%, COC(=O)c1sc2cccc(F)c2c1S(=O)(=O)N1CCN(c2ccccc2OC)CC1 22.7%, COc1ccccc1CNC(=O)CN1C(=O)CSc2c1c(C)nn2-c1ccccc1 17.8%, CC(C)(C)CC(=O)Nc1nnc2n1CCS2 14.4%, C#CCOCCOCCOCCNc1nc(N2CCN(C(=O)CCCCCCCCCCNC(=O)[C@@H](CCC(=O)O)n3cc(CCCCCN)nn3)CC2)nc(N2CCN(C(=O)CCCCCCCCCCNC(=O)[C@H]([C@@H](C)CC)n3cc(CCCCCN)nn3)CC2)n1 1.73%, CC(C)(C)c1ccc(C(=O)COC(=O)CN2C(=O)NC3(CCCC3)C2=O)cc1 9.86%, COc1ccc(CNC(=O)Cn2ccc3cc(S(=O)(=O)N4CCCCC4)ccc32)c(OC)c1 18.4%, COc1cc2[nH]c(=O)c(C(=O)NCc3ccc(F)cc3)c(O)c2cc1OC 8.11%
